Measured values as given in publication PMC12136788.
The list shows a part of the results.

B1: ENSG00000198589:be:win_2001|CDS|ENSG00000198589|bound_else_gene|NA|bound_elsewhere_windowed (ssRNA)
RNA: GGGAGUUCUACAGUCCGACGAUCGAAGGAUUCUGGAGUAAAGGAAGAUGAAUUACAGGCCAUUCUUAAUUACCUACUGACUAUGCAUGAGGAUGACAAUCUAAUGGAUGUCCUACAGCUGCUUGUUGCAUUAAUGUCAGAACACAACAGAGGAUUGAGCAUCA
B2: chr1:24839915:24840022:+|CDS|ENSG00000169504|unk|FALSE|bound_elsewhere (ssRNA)
RNA: GGGAGUUCUACAGUCCGACGAUCACCCUGCAGAAACUGGAUGAAUAUCUGAAUUCUCCUCUCCCUGAUGAAAUUGAUGAAAAUAGUAUGGAGGACAUAAAGUUUUCUACACGUAAAUUUCUGGAUGGCAAUGAAAUGACAUUACAACAGAGGAUUGAGCAUCA
B3: chr2:159433012:159433119:-|CDS|ENSG00000123636|unk|FALSE|unique (ssRNA)
RNA: GGGAGUUCUACAGUCCGACGAUCGCACUUACUACCAAAACUAAAAUGCAGAGCAAGAUUAAUGAAAACAUUGCUGCUGCAAGUAGCACCCCUUUUUCCUCACCUGUAAAUCUGAGUACAAGUGGGAGAAGAACCCCUGGCAAUCAACAGAGGAUUGAGCAUCA
B4: chr1:54850123:54850236:-|3pUTR|ENSG00000116133|msi1_unk|FALSE|overlapping (ssRNA)
RNA: GGGAGUUCUACAGUCCGACGAUCGCCUCCAACCCUAAGCCACUGGGACGGUGGCCAGAGAUGCCAGCAGCCUCUGUCGCCCUUAGUCAUAUAACCAAAAUCCAGACCUUAUCCACAACCCGGGGCUUGGAAAGGAAGGUAUUUCAACAGAGGAUUGAGCAUCA
B5: chr1:42176760:42176861:-|3pUTR|ENSG00000198815|msi1|total|mutant (ssRNA)
RNA: GGGAGUUCUACAGUCCGACGAUCGUCGCUCAGAUGUCCUUUGAAGUGGGAGGGAAUCAAUCCGGGGAUAAUUUCAAAUGGAACCGAGUAUUUUGAUAUUGUUCAUUCAGAGGGUGAUGUGUACAUAUCUAUAUUGUAUAUAUGCAACAGAGGAUUGAGCAUCA
B6: chr17:82614561:82616025:-|three_prime_utr|ENSG00000141580|control|control|control (ssRNA)
RNA: GGGAGUUCUACAGUCCGACGAUCCUACAAAUUCCUGUUCAACCCCAAGGGGGAGUGCAUCCGAGAUGUCUACGCGCAGUUUCUAGAGAUGACCGAUGACAAGCUGUGACUCCAGCUGGGGGCGCCACAGCACCCACCACCUGCCAACAGAGGAUUGAGCAUCA
B7: chr2:216675367:216675485:-|3pUTR|ENSG00000115461|msi1|total|mutant (ssRNA)
RNA: GGGAGUUCUACAGUCCGACGAUCGCCAGGCAGAGGCCAGCCCUCCGUGGUGCACACAGCACGCGCCUCAGUCCAUCCCAUUUCCGUCUUUAAACCCUCAGGAAGUCACAGUCUCCGGACACCACACCACAUGAGCCCAACAGGCAACAGAGGAUUGAGCAUCA
B8: chr12:56162362:56162467:-|3pUTR|ENSG00000139613|unk|FALSE|unique (ssRNA)
RNA: GGGAGUUCUACAGUCCGACGAUCGGUUCCUCCCACCAGGCCCUUUGUUCCUCAUGUCCCCAUGUUUCUCUCCCUCUGCGUCUUAGCACCUUUCUUCUGUUCAAAGUUUUCUGUAAAUUUUCUCUUUUUUUCUUUCUUUCUUUUCAACAGAGGAUUGAGCAUCA
B9: chr10:123166816:123166917:+|3pUTR|ENSG00000154473|unk|total|mutant (ssRNA)
RNA: GGGAGUUCUACAGUCCGACGAUCAAAAACUUAAAGGUAUAUCCGCAGGUCCGCCUUUGUUCUGUGGGAGAUCCAGGCCUUGUCCGAAGGACCAAGGCCAGAAUGCCCAGUUCCGCCUCCGCAUUCAAACCCUUCAUUGUUUUUCAACAGAGGAUUGAGCAUCA
B10: chr12:52170242:52170446:-|3pUTR|ENSG00000167767|msi1|FALSE|unique (ssRNA)
RNA: GGGAGUUCUACAGUCCGACGAUCUGGCCCUCCCCUCCUUGGCAUUCAUGGGGGAGCCCAGGAACCCCCCACACCUAUGGGGUUAGAGCUCCUCCUUUCUUCUCACUCCUUCCCCUUCCUCCCUCCAUGCCCACUCCCCCUGCCCAACAGAGGAUUGAGCAUCA
B11: chr5:115137525:115137627:-|CDS|ENSG00000152503|unk|total|mutant (ssRNA)
RNA: GGGAGUUCUACAGUCCGACGAUCUUCCGCAGAAGAGGCUAUUCUUUGUUUUAUCUCCGUGUAAUGGAGAUACUGUUUUUUCUCCGUGUAAUGGAGAGAGGGCUAAAGAAGAAGCAAUUACACAUUUUGAAAAGCUCUUUGAAGCAACAGAGGAUUGAGCAUCA
B12: ENSG00000075856:stop:overlap|stop_codon|ENSG00000075856|stop_codon|NA|stop_codon (ssRNA)
RNA: GGGAGUUCUACAGUCCGACGAUCGCAGCGGGCAUCUUCCAGUCUUUCAGGUCCUCGGGUCCCCAUGUCCUGGCCCGCCUCCCUAGUCCUCGGCGGCGAUAAAGCCGCCAAGGCUGCAAACCCGCUUUUCGUGACAGUAGCUCCCAACAGAGGAUUGAGCAUCA
B13: chr10:73251842:73251943:-|CDS|ENSG00000182180|msi1|total|mutant (ssRNA)
RNA: GGGAGUUCUACAGUCCGACGAUCUCGGCCGUUCUACCGCAUUGUGGCUGCUCACAACAAGUGUCCCAGGGAUGGCCGUUUCGCCGAGCAGCUGGGCUCCUAUGAUCCAUUGCCCAACAGUCAUGGAGAAAAACUCGUUGCCCUCAACAGAGGAUUGAGCAUCA
B14: chr16:3727831:3727932:-|CDS|ENSG00000005339|unk|total|mutant (ssRNA)
RNA: GGGAGUUCUACAGUCCGACGAUCCGUCUCACCCCAGACUGGUUCCCCCCACCCCGGACUCGCAGUCACCAUGGCCAGCUCCACCGAUCAGGGACACUUGGGGAACCCCGAACAGAGUGCAAUGCUCCCCCAGCUGAACACCCCCAACAGAGGAUUGAGCAUCA

biological target: MSI1 full-length (mouse, UniProt Q61474 1-362); assay: nsRBNS (natural sequence RNA bind-n-seq); RBNS binding buffer (assumed for nsRBNS): 25 mM Tris pH 7.5, 150 mM KCl, 3 mM MgCl2, 0.01% Triton X-100, 500 ug/ml BSA, 20 U/ml SUPERase-In, 4 C; UNK is unkempt and MSI1 is Musashi-1; names of the RNAs are library labels; protein concentration not given here; high values mean tight binding
Sequence of UniProt Q61474 (Q61474 whole entry): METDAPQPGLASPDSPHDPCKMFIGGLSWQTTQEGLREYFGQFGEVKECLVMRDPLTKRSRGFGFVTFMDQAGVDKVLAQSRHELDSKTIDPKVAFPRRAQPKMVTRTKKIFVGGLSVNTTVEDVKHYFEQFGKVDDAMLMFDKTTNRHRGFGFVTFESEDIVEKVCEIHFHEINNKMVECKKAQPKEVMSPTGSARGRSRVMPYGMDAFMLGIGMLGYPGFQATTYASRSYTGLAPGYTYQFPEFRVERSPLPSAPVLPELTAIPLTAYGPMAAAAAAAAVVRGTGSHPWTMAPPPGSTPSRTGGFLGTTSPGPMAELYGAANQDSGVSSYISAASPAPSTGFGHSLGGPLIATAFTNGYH

Row | Binder | binding signal [enrichment R]
1 | B1 | 0.483
2 | B2 | 0.295
3 | B3 | 0.413
4 | B4 | 0.86
5 | B5 | 0.79
6 | B6 | 0.533
7 | B7 | 0.675
8 | B8 | 0.987
9 | B9 | 0.272
10 | B10 | 1.08
11 | B11 | 0.258
12 | B12 | 0.223
13 | B13 | 0.313
14 | B14 | 0.522
